# About 7,200 (1.8%) of roughly 410,000 compounds were called active. The shares of active, inactive and inconclusive entries below differ from those in the screen. The call rests on the fitted dose curve; in most records, active means well fitted activation curve with a large enough effect; inconclusive means small, poorly fitted or top-dose-only effect, or another doubt; inactive means no such curve, though single readings can be large or run the other way. No potency is given beside an inconclusive call; the fits are too rough. Positions of bridges follow the written chain, without caps; N, C: chain ends. Non-standard residues stand in square brackets, D forms with d. Residues, ends and D or L forms follow the SMILES beside them.
# Test: qHTS of TDP-43 Inhibitors; further: nearly all actives have a fitted effect of over 50% in size; on growth rescue (activation): % of control where 0% means no effect
# Details: TDP-43 expressing yeast growth rescue, BacTiter-Glo, 24 h; growth rescue (activation): at 46.1 µM (top of the series) unless noted
# Procedure, shortened: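 Readout is BacTiter-Glo luminescence of cell growth, so inhibitors register as activators. TDP-43-expressing yeast at OD600=0.02 in galactose medium, after raffinose pregrowth to mid-log, were incubated with compound for 24 hr at 30 deg C.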
# Potency means the concentration at half of the fitted maximal effect; tags describe the fitted curve by direction and shape.
SMILES,Potency,growth rescue (activation)
COc1ccc(C(=O)N2N=C(c3cccc(OC)c3)CC2(O)C(F)(F)F)cc1 (stereo unspecified),"inconclusive [activator, single point]",–
COc1ccc(/C=N/NC(N)=S)cc1OC(=O)c1ccccc1,"inconclusive [activator, single point]",–
Cc1ccccc1NC(=O)Cn1c(SCC(=O)Nc2ccc(F)cc2)nc2ccccc21,inactive,–
O=C(O)c1ccc(CNCc2ccc(Cl)cc2)s1,inactive,–
CC1(C)Cc2cccc(OCC(=O)NCc3ccccc3F)c2O1,"inconclusive [activator, partial curve]",–
CCCCCC(=O)N1C[C@@H](O)[C@H](n2cc(-c3ccc(F)cc3)nn2)C[C@@H]1c1ccc(Cl)cc1,"inconclusive [activator, partial curve, poor fit]",–
Cc1c(Cl)cccc1NC(=O)c1cccc(OC(F)F)c1,"inconclusive [activator, single point]",–
Cn1c(=NC(=O)CSCC(=O)N2CCCCC2)sc2ccccc21,"inconclusive [activator, partial curve]",–
CC(C)Cn1c(N)c(S(=O)(=O)c2cccs2)c2nc3ccccc3nc21,inactive,–
CC[C@H](C)[C@@H]1NC(=O)[C@@H](CC(C)C)NC(=O)[C@H](C(C)C)NC(=O)[C@H]2CSSC[C@H](NC1=O)C(=O)N2 (cyclo(C[dC]V[dL]I); disulfide 1-2),"inconclusive [activator, full curve, poor fit]",–
O=C(CNC(=O)c1ccccc1)OCN1C(=O)c2ccccc2C1=O,inactive,–
S=C(c1ccccc1)N1CCN(c2ccccc2)CC1,inactive,–
COC(=O)C(C#N)c1nc2ccccc2nc1N1CCCC1 (stereo unspecified),"inconclusive [activator, single point]",–
O=[N+]([O-])c1cc(/C=N/O)ccc1Oc1cccc(Cl)c1,–,inconclusive: 92.6% [activator]
COC(=O)C1Cc2ccccc2CN1S(=O)(=O)c1ccc(C)cc1 (stereo unspecified),"inconclusive [activator, partial curve]",–
CC(=O)c1cccc(NC(=O)/C=C/c2ccc([N+](=O)[O-])s2)c1,inactive,–
CCC(C)(C)C1CCc2c(sc(NC(=O)c3ccoc3C)c2C(N)=O)C1 (stereo unspecified),"inconclusive [activator, partial curve]",–
O=C(Nc1nnc(-c2cccnc2)o1)c1ccccc1Cl,inactive,–
CN(C)c1nc(Cl)nc(NCCOc2ccccc2)n1,"inconclusive [activator, partial curve]",–
Cc1ccc(C(=O)Nc2ccc3c(c2)OCCO3)c(C)c1,"inconclusive [activator, single point]",–
Fc1ccccc1N1CCN(c2cnc3ccccc3n2)CC1,"inconclusive [activator, single point]",–
Cn1c(/C=C/c2ccc(Cl)cc2)nc2ccccc2c1=O,"inconclusive [activator, partial curve]",–
COc1cccc(-c2nnc3sc(C4CCCCC4)nn23)c1,"inconclusive [activator, single point]",–
CCCCCCCc1c(C#N)c(N)[nH]c(=S)c1C#N,"inconclusive [activator, partial curve]",–

SMILES,Potency,growth rescue (activation)
O=Cc1c(NC2CCCCC2)c2ccccc2[nH]c1=O,inactive,–
O=C(O)c1cc2c(ccc3ccccc32)o1,inactive,–
CC(C)(C)c1ccc(S(=O)(=O)NCc2ccc3c(c2)CCN3C(=O)c2ccccc2)cc1,inactive,–
Cn1c(SCC(=O)N/N=C/c2ccc([N+](=O)[O-])s2)nnc1-c1ccc(Cl)cc1,–,inconclusive: -24.8% [activator]
Cc1ccc(C)c(OCc2cc(C(=O)N3CCN(c4cnccn4)CC3)no2)c1,"inconclusive [activator, partial curve]",–
CC(Sc1nn(-c2ccc(Cl)cc2)c(=S)s1)C(=O)NCC1CCCO1 (stereo unspecified),"inconclusive [activator, partial curve, poor fit]",–
CCN(CC)S(=O)(=O)c1cccc(C(=O)NC(C(=O)NNC(=O)c2ccccc2F)C(C)C)c1 (stereo unspecified),inactive,–
CCOc1cc(C)c(S(=O)(=O)N2CCCCC2)cc1C,"inconclusive [activator, partial curve]",–
COc1cccc(-c2cnc3c(NC=O)cc(-c4cc(OC)c(OC)c(OC)c4)cn23)c1,"inconclusive [activator, partial curve]",–
COc1cc(C(C)=O)ccc1OCC(=O)Nc1ccc(C)c(S(=O)(=O)N2CCCCCC2)c1,"inconclusive [activator, single point]",–
Cc1csc(NC(=O)c2cc3c(s2)CCCC3)n1,active: 28.2 µM,–
CCN(c1ncnc2c1cnn2-c1ccc(C)cc1)C1CCCCC1,inactive,–
CCOc1ccc(/C=N/OCC(=O)NCc2ccc3c(c2)OCO3)cc1OC,"inconclusive [activator, partial curve]",–
CC(=O)O/N=C/c1c(C)c(C=O)n2ccccc12,"inconclusive [activator, partial curve]",–
COc1ccc(C(=O)Nc2ccc([N+](=O)[O-])cn2)cc1OC,"inconclusive [activator, single point]",–
COc1ccccc1CNS(=O)(=O)c1c(C)nc2scc(C)n2c1=O,"inconclusive [activator, full curve, poor fit]",–
Cc1cc(Nc2ccc(C)c(Cl)c2)n2nc(Cc3ccccc3)nc2n1,active: 22.4 µM,–
Nc1ccc2c(c1)-c1ccc(F)cc1C2=O,inactive,–
CCOc1ccc2oc(=O)cc(CN3CCN(c4cc(C)ccc4C)CC3)c2c1,inactive,–
CCOc1cc(S(=O)(=O)NCc2ccc(OC)cc2)c(OCC)cc1-n1cnnn1,inactive,–
CC(=O)Nc1cc(Cl)ccc1OS(=O)(=O)c1ccc(C)cc1,"inconclusive [activator, partial curve]",–
O=C(c1cc(COc2ccc3ncccc3c2)on1)N1CCCCCC1,"inconclusive [activator, single point]",–
COc1ccc(S(=O)(=O)N(C)C)cc1NC(=O)COc1ccc2c(c1)CCC2,"inconclusive [activator, partial curve]",–
O=C1c2cccnc2C(=O)N1Cc1ccccc1,inactive,–

SMILES,Potency,growth rescue (activation)
Cc1ccc(C)c(S(=O)(=O)N2CCN(CC(=O)Nc3ccc4c(c3)CCC4)CC2)c1,"inconclusive [activator, single point]",–
CC(C)(C)NC(=O)NC(=O)COC(=O)Cc1coc2ccc3ccccc3c12,"inconclusive [activator, single point]",–
OC[C@@H]1CN(Cc2ccc(-c3ccccc3)cc2)C[C@H](n2cnc3c(NCc4ccc(F)cc4)ncnc32)O1,"inconclusive [activator, single point]",–
CN1CCc2c(sc3c2C(=O)NC(c2ccccc2)N3)C1 (stereo unspecified),inactive,–
CC1CN(C(=O)c2cc(COc3c(F)cccc3F)on2)CCN1C (stereo unspecified),inactive,–
Cc1nc2nc(NC(=O)c3ccccc3F)[nH]n2c(=O)c1Cl,inactive,–
Cc1cccc(N2CCN(C(=O)c3cccn4c(=O)c5cc(Cl)ccc5nc34)CC2C)c1 (stereo unspecified),inactive,–
COc1cc(COC(=O)c2cnc(C)cn2)c(OC)cc1Br,"inconclusive [activator, partial curve]",–
Cc1cccc2sc(NC(=O)CN(C)S(=O)(=O)c3cccs3)nc12,active: 15.8 µM,–
CC(C)COc1ccc(C(=O)Nc2scc(-c3ccc(Cl)cc3Cl)c2C(N)=O)cc1,"inconclusive [activator, partial curve]",–
Cc1nc2ccc(NC(=O)Cc3cccs3)cc2s1,"inconclusive [activator, single point]",–
COc1cc2[nH]c(C(=O)N3CCN(c4ccccc4F)CC3)cc2c(OC)c1OC,active: 35.5 µM,–
CC(=O)N1c2ccc(S(=O)(=O)NCC3CCC(C(=O)Nc4ccc(C)cc4)CC3)cc2CC1C (stereo unspecified),"inconclusive [activator, partial curve]",–
CCOc1ccccc1NC(=O)c1nc[nH]c1C(=O)Nc1ccccc1OCC,"inconclusive [activator, partial curve, poor fit]",–
COc1ccc(C(O)c2nc(-c3cccc(O)c3)cs2)cc1 (stereo unspecified),active: 20 µM,–
Nc1c(C(=O)Nc2nc3ccccc3s2)sc2nc(-c3cccs3)ccc12,"inconclusive [activator, partial curve, poor fit]",–
CC1(C(=O)O)CCCN(C(=O)c2ccc(OC(F)F)cc2)C1 (stereo unspecified),"inconclusive [activator, partial curve, poor fit]",–
COc1ccccc1N1CCN(/N=C/c2cccc(Cl)c2)CC1,"inconclusive [activator, partial curve]",–
COc1ccc(-c2nc(-c3ccc(O)cc3O)cs2)cc1OC,active: 17.8 µM,–
Cc1nc2cc(C(F)(F)F)ccc2n1CCNc1nc(-c2ccc([N+](=O)[O-])c(Cl)c2)cs1,"inconclusive [activator, partial curve]",–
Cc1ccc(C(=O)N2CCN(S(=O)(=O)c3ccccc3)CC2)cc1,"inconclusive [activator, partial curve]",–
Cc1ccc(Cl)cc1NC(=O)CCC(=O)N1CC(C)Sc2ccccc21 (stereo unspecified),active: 25.1 µM,–
Cc1nc2sc(C(c3ccco3)N3CCC(Cc4ccccc4)CC3)c(O)n2n1 (stereo unspecified),"inconclusive [activator, single point]",–

# Source: PubChem BioAssay AID652104 (National Center for Advancing Translational Sciences (NCATS), 2013)
